# According to article PMC6919601, “Identification of Plasmodium dipeptidyl aminopeptidase allosteric inhibitors by high throughput screening” (PLoS ONE, 2019):
# Out of some 110,000 compounds screened, about 230 (0.21%) showed an effect of 50% or more. The list shows a part of the results.
# Molecular target: DPAP1 (Plasmodium falciparum, UniProt Q8IIJ9)
# Experiment: primary screen, percent inhibition; read by cleavage of a fluorogenic dipeptide substrate; higher = more effect of the substance
# Parameters: species or system P. falciparum D10 trophozoite lysates; single well
# 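Further: 30 min substrate incubation versus DMSO and 10 µM JCP410 controls.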
# Chain of DPAP1 (Q8IIJ9 whole entry, looked up): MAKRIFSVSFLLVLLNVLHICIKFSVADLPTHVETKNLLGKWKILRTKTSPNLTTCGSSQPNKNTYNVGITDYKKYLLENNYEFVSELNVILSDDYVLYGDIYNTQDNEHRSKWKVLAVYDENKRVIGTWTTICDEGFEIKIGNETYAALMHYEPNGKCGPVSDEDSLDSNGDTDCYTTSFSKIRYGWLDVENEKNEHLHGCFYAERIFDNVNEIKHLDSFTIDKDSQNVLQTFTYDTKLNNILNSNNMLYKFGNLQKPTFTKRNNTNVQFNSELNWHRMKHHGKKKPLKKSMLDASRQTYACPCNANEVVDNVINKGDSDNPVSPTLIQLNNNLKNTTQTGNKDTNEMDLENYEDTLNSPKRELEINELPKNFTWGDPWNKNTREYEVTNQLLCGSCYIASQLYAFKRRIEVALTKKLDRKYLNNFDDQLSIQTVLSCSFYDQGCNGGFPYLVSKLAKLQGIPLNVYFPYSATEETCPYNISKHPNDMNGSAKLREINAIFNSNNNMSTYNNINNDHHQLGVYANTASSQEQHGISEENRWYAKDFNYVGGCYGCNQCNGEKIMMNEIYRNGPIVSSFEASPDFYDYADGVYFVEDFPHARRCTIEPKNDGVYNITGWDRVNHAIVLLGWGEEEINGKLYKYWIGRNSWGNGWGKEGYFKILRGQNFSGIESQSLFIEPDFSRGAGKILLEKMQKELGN
row,SMILES,% Inhibition @ 10 uM
1,COc1ccccc1C1(CCC(=O)O)CCC(=O)NC1=O (centres unmarked),-0.551%
2,Cc1c(C(=O)N2CCOCC2)[nH]c2c1C(=O)CC(c1ccc(Cl)cc1)C2 (centres unmarked),8.4%
3,CCCc1nnc2n1C(C)(C)Cc1ccccc1-2,3.61%
4,COc1ccc(NC2CC(=O)N(c3cccc(OC)c3)C2=O)cc1 (centres unmarked),3.05%
5,COc1ccc(NC2=Nc3ccccc3CCC2)cc1,-1.06%
6,C=C1OC(=O)OC1(C)Cc1ccccc1 (centres unmarked),-2.19%
7,CN(Cc1cnn(-c2ccccc2)c1)S(=O)(=O)c1csc(C(N)=O)c1,-8.67%
8,Cc1ccccc1S(=O)(=O)Cc1ccc(C(=O)NCc2cccnc2)o1,2.14%
9,COc1ccc(NC(=O)C2CCCO2)c(OC)c1 (centres unmarked),-5.13%
10,CC(=O)OC(C#CBr)c1ccccc1 (centres unmarked),-5.5%
11,Cc1ccc(S(=O)(=O)Nc2cccc(NS(=O)(=O)c3ccc(C)cc3)n2)cc1,0.632%
12,CC(C)C(Nc1c2ccccc2nc2ccccc12)C(=O)O (centres unmarked),1.74%
13,CCCCC1=NN(C(=O)c2ccccc2OC)C(O)(C(F)(F)F)C1 (centres unmarked),0.673%
14,COC(=O)c1ccc(Cn2nc(C)c(Cl)c2C)cc1,-1.33%
15,N#Cc1ccc(-c2cc(C(=O)O)c3c(ccc4ccccc43)n2)cc1,3.25%
16,O=C(OC1C(C2COC3(CCCCC3)O2)OC2OC3(CCCCC3)OC21)c1ccccc1 (centres unmarked),1.81%
17,NC(=O)Cn1c(=O)n(Cc2ccc3c(c2)OCO3)c(=O)c2cccnc21,-1.66%
18,COc1cc(/C=C2\SC(N3CCN(CCO)CC3)=NC2=O)ccc1OCc1ccccc1,9.86%
19,COc1ccc(-c2cc(C)no2)cc1S(=O)(=O)NCc1cccc(C)c1,3.24%
20,CC1CCCCC1NC(=O)c1cnn2c(C(F)(F)F)cc(-c3ccccc3)nc12 (centres unmarked),2.9%
21,OC1(c2ccccc2)c2ccccc2-c2ncccc21 (centres unmarked),-4.67%
22,Cc1ccc(-n2c(S)nnc2-c2ccc(Cl)cc2)cc1,3.01%
23,COc1cc(/C=C/c2ccc3cccc(OC)c3n2)cc2c1OCO2,2.49%
24,O=C(COc1ccc(Cl)cc1Cl)N1CCCCCC1,4.57%
25,O=C(O)c1ccccc1N1C(=O)c2ccc([N+](=O)[O-])cc2C1=O,-10.8%
26,CCOC(=O)C1=C(c2ccccc2)OC(N)=C(C#N)C1c1ccc(OC)c(CSc2ccccn2)c1 (centres unmarked),7.04%

row,SMILES,% Inhibition @ 10 uM
1,Cc1ccc(NC(=O)Nc2ccccc2C#N)cc1NC(=O)Nc1ccccc1C#N,-3.66%
2,CC(=O)N/C(=C\c1ccccc1)C(=O)NC(C)c1ccccc1 (centres unmarked),-0.744%
3,CN1CCN(c2nc(-c3ccc(C(=O)NC4(C(=O)N[C@@H](CCc5ccccc5)C(O)c5nc6ccccc6o5)CCCCC4)cc3)cs2)CC1 (some centres unmarked),-1.5%
4,O=C(CSc1nnc2sc3ccccc3n12)Nc1nc2c(s1)CCCC2,-1.11%
5,COc1ccccc1-n1c(O)cc(=O)nc1SC,3.48%
6,COc1ccc(CNC(=O)c2csc3ccccc23)cc1,2.05%
7,CCCOc1nc2c(Cl)cccc2s1,2.65%
8,Cc1cc(C)nc(NS(=O)(=O)c2ccc(NC(=O)c3cccs3)cc2)n1,-0.000375%
9,Cc1ccc(C2C(C#N)=C(N)Oc3c2c(=O)n(C)c(=O)n3C)cc1 (centres unmarked),0.317%
10,Cc1cccc(-c2cc(C(=O)NCCN3CCOCC3)c3ccccc3n2)c1,-1.1%
11,Cc1oc(-c2cccc(Cl)c2)nc1CS(=O)(=O)CC(=O)NCCN1CCOCC1,-2.92%
12,COc1ccccc1CNC(=O)CN1C(=O)C2C3C=CC(C3)C2C1=O (centres unmarked),5.11%
13,CC1NCCc2c1[nH]c1ccccc21 (centres unmarked),3.47%
14,C=C(C)Cn1c(Cc2ccccc2)nc2ccccc21,-7.83%
15,OC(CN1CCOCC1)Cn1cnc2ccccc21 (centres unmarked),2.77%
16,CC(=O)c1c(O)c2cccc3c2n(c1=O)CC3,0.5%
17,CC(C)CN(CC(C)C)C(=O)CN(C)S(=O)(=O)c1cccc2nsnc12,3.63%
18,CCc1ccc(N(CC(=O)Nc2ccccc2C(C)C)S(C)(=O)=O)cc1,6.24%
19,Cc1ccc(S(=O)(=O)NCCC(=O)NCc2ccccc2)cc1,-1.99%
20,COc1ccc(-c2cn3nc(N4CCC(C(=O)N5CCc6ccccc6C5)CC4)sc3n2)cc1,-2.77%
21,CC1CCN(S(=O)(=O)c2ccc(S(=O)(=O)N3CCN(CCC#N)CC3)cc2)CC1,1.62%
22,CCOc1ccc2nc(NC(=O)C(CC)CC)sc2c1,5.25%
23,Cc1nc(Cl)sc1C(=O)Nc1ccc(C(C)(C)C)cc1,2.64%
24,CN(Cc1cc2ccccc2nc1O)S(=O)(=O)c1ccccc1,1%
25,O=C(NC1CCc2ccccc21)c1nnc(O)c2ccccc12 (centres unmarked),-1.07%
26,CCN(CC)c1ccc(C2NCC(c3ccc([N+](=O)[O-])cc3)O2)cc1 (centres unmarked),-2.35%

row,SMILES,% Inhibition @ 10 uM
1,CCOC(=O)N1CCN(C(=O)CN(c2cc(C)cc(C)c2)S(=O)(=O)c2ccc(C)cc2)CC1,0.408%
2,O=C1c2ccccc2-c2nc3cc(Cl)c(Cl)cc3nc21,11.8%
3,Cc1ccc(-c2noc(CSc3nc(C)cc(C)n3)n2)cc1,-5.81%
4,Cc1ccccc1NC(=O)C(C)(C)NC(=O)c1cccc(N2C(=O)CSC2c2ccccc2)c1 (centres unmarked),-1.36%
5,O=C(CSc1nc2cc(Cl)ccc2s1)NCc1ccccc1,-6.84%
6,Cc1cc(C(=O)O)c(NC(=O)c2cccc(Cl)c2)s1,1.39%
7,O=C(COc1ccc(Br)cc1)NCCc1ccccc1,-11.1%
8,Cc1cccc(C)c1NC(=O)C(C)Oc1ccccc1 (centres unmarked),2.24%
9,COCCO/C(O)=C1\C(C)=NC2=C(C(=O)CCC2)C1c1ccccc1Cl (centres unmarked),3.82%
10,CC[n+]1ccccc1/C=C1\C=Cc2cc(C)ccc2N1C,-3.19%
11,Nc1ccc(NS(=O)(=O)c2ccc(N)cc2)cc1,3.47%
12,C/C(Cl)=C\Cn1c(=O)c2c(nc(Br)n2Cc2ccccc2)n(C)c1=O,-4.33%
13,O=C(Nc1ccc2[nH]c3c(c2c1)CCCC3)c1ccc(F)cc1,-3.41%
14,O=C(CN1N=C(c2ccccc2)CCC1=O)NCCN1CCOCC1,0.514%
15,Cc1ccn2c(=O)c(C(=O)NCc3ccc(Cl)cc3)cnc2c1,0.0579%
16,COc1ccc2cc3cc(C(=O)NCCN4CCc5ccccc5C4)sc3nc2c1,4.61%
17,O=C(CCC1CCCCC1)N[C@@H](CCc1ccccc1)C(=O)c1nc2ccccc2o1,-5.21%
18,COc1cc(CNCCO)cc(Cl)c1OCc1ccc(F)cc1,0.189%
19,CCOc1ccc(NC(=O)C2=C(C)NC(=O)NC2c2cccc(Br)c2)cc1 (centres unmarked),4.75%
20,Cc1cccc(NC(=O)C(F)(OC(F)(F)C(F)(F)C(F)(F)F)C(F)(F)F)n1 (centres unmarked),5.98%
21,Cn1nnnc1SCCCNCc1c(F)cccc1Cl,0.596%
22,CCOc1ccccc1N1CCN(C(=O)/C=C/c2ccc(F)cc2)CC1,-1.66%
23,CCC1CCc2c(sc(NC(=O)Nc3ccc(Cl)c(Cl)c3)c2C(N)=O)C1 (centres unmarked),2.72%
24,COC(=O)c1ccc(-c2cc(C(=O)O)c3c(-c4ccc(C)cc4)[nH]nc3n2)cc1,-0.0401%
25,COc1ccc(C2CC(=O)C3=C(C2)NC(=O)CC3c2cc(Br)c(O)c(OC)c2)cc1 (centres unmarked),5.86%
26,COCCNC(C)Cc1ccc(F)cc1 (centres unmarked),1.57%

row,SMILES,% Inhibition @ 10 uM
1,Oc1cccc(CN2CC=C(c3ccc(F)cc3)CC2)c1,-7.18%
2,N#Cc1ccc(Cn2c(-c3cncs3)nc3ccccc32)cc1,-3.39%
3,COc1cc(CCNc2ccc3nnc(-c4ccccc4)n3n2)cc(OC)c1OC,-3.08%
4,CC(=O)Nc1ccc(NC(=O)c2sc3cc(C)ccc3c2Cl)cc1,-4.49%
5,O=C(O)CCC(=O)n1ncc2c(Cl)cccc21,-1.7%
6,COC(C)(C)/C=C(\N)C(=O)c1ccccc1,3.05%
7,O=C(Nc1nccs1)c1cccc(F)c1,-0.48%
8,CC1=C(C(=O)Nc2ccccc2)C(c2ccc(Cl)cc2)n2ncnc2N1 (centres unmarked),-6.83%
9,O=C1C2C(c3ccccc3)OC3(C(=O)c4ccccc4C3=O)C2C(=O)N1c1ccc(C(F)(F)F)cc1 (centres unmarked),5.32%
10,COc1cc(CN2CCN(C(=O)c3cccnc3)CC2)cc(OC)c1OC,3.95%
11,CC1(C)CC(=O)C2=C(C1)OC(N)=C(C#N)C2c1ccc(Cl)cc1Cl (centres unmarked),-0.128%
12,O=C(Cn1ncc2c3ccccc3n(Cc3ccccc3F)c2c1=O)N1CCN(c2ccccn2)CC1,4.95%
13,Cc1oc2ncnc(NCCc3ccc(Cl)cc3)c2c1C(=O)O,-3.95%
14,N#Cc1cc2c(nc1SCC(=O)Nc1nc3ccccc3s1)CCC2,2.09%
15,N#CC1=C(N)Oc2[nH]nc(-c3ccncc3)c2C1c1ccsc1 (centres unmarked),-8.56%
16,O=C(Nc1ccncc1)c1cc(-c2ccc(Cl)cc2)nc2ccccc12,-1.89%
17,Cc1onc(-c2ccccc2Cl)c1C(=O)N1CCN(Cc2ccccc2)CC1,-5.81%
18,COc1ccc(C2C(C(=O)N3CCN(Cc4ccccc4)CC3)c3ccccc3C(=O)N2C)cc1 (centres unmarked),-2.04%
19,CCCN1C(=O)c2[nH]nc(-c3ccccc3)c2C1c1ccccn1 (centres unmarked),-1.07%
20,CCOc1ccc(/C=c2/sc3nc(=O)c(C)nn3c2=O)cc1OCC,0.222%
21,Cc1nc2sccn2c(=O)c1S(=O)(=O)NCc1ccccn1,-4.04%
22,O=C(COc1cccc(Cl)c1)Nc1nc(-c2ccc(F)cc2)cs1,-1.44%
23,COc1ccc(S(=O)(=O)N2CCN(C/C=C/c3ccccc3)CC2)cc1C,-1.84%
